The results in this text go back to PubChem BioAssay AID1508623 (National Center for Advancing Translational Sciences (NCATS), 2021).

About 450 (0.94%) of roughly 48,000 compounds were called active. Roughly 19% stayed inconclusive and do not appear here. Calls follow the shape of the dose curve; as a rule, active = well fitted inhibition curve with a large enough effect; inconclusive = small, poorly fitted or top-dose-only effect; inactive = no such curve, though single readings can be large or run the other way. The list shows a part of the results.

A short description of the assay: Primary qHTS for Identification of Small Molecule Inhibitors of Huntingtin Promoter Activity. Also: nearly all actives have a fitted effect of over 50% in size. The following applies: HEK293 HTT promoter firefly luciferase reporter (activity 0% = vehicle and -100% = no light), 24 h; series mostly up to 57.5 µM; activity change, negative = inhibition: at the top concentration. The gist of the method: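 HEK293 luciferase promoter-reporter cells (2,500/well) plated 24 h, then compounds added at up to 57.5 uM final for 24 h at 37 °C. Firefly luminescence by Dual-Glo, normalized to vehicle (0%) and zero RLU (-100%).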
(qHTS replaces the single test concentration by a dilution series.)
Regarding `COc1cc(C(=O)OCc2cc(=O)n3nc(C(C)C)sc3n2)cc(OC)c1OC`, the “activity change, negative = inhibition” value was inactive: -16.7%. With `COc1cc(NC(=O)c2cccc(F)c2)ccc1NC(=O)c1cc2ccccc2o1` the figure was inactive: 11.8%; with `CCOc1ccccc1NC(=O)CN1CCCN(Cc2cccc(Cl)c2)S1(=O)=O`, inactive: -13.6%; with `O=C(Nc1ccc(Oc2ccnc3[nH]ccc23)c(F)c1)c1cccn(-c2ccc(F)cc2)c1=O`, inactive: -1.11%. Take `CCOC(=O)c1cccc(NS(=O)(=O)c2cc3[nH]c(=O)c(=O)[nH]c3cc2C)c1`: the “activity change, negative = inhibition” value is inactive: 13.1%. `Cc1nc2ncnn2c(C)c1CCC(=O)N1CCN(c2cccc(Cl)c2)CC1`: the “activity change, negative = inhibition” value was inactive: -1.86%.

Regarding `CCc1ccc(NC(=O)c2nnn(Cc3cccc(C(F)(F)F)c3)c2N)cc1`, the “activity change, negative = inhibition” value is inactive: -11.8%. Consider `COc1cccc(CNC(=O)c2ccc3c(c2)nc2n3CCCCC2)c1OC`, for which the “activity change, negative = inhibition” value is inactive: 23.3%. With `COc1ccc(NC(=O)Nc2c[nH]c(=O)[nH]c2=O)c(OC)c1` the figure was inactive: 3.78%; with `Cc1cccc(-n2c(C)nc3cc(C(=O)NC4CCCCCC4)ccc32)c1`, inactive: 3.41%. As to `Cc1c(C(=O)N(Cc2ccc(Cl)cc2)CC2CCCO2)oc2ccc(F)cc12` (stereo not drawn), the “activity change, negative = inhibition” value is inactive: -16.5%. In the case of `COc1ccccc1CNC(=O)CSc1ncc2c(n1)-c1cc(Cl)ccc1N(Cc1ccccc1)S2(=O)=O`, the “activity change, negative = inhibition” value was inactive: -9.28%. Turning to `CCOc1ccc(-c2nc(SCC(=O)NCCCOC)c(-c3ccccc3)[nH]2)cc1`, the “activity change, negative = inhibition” value was inactive: 24%. `COc1ccccc1Oc1c(NS(=O)(=O)c2ccc(C(C)(C)C)cc2)nc(-c2ncccn2)nc1OCCO`: the “activity change, negative = inhibition” value is inactive: -8.67%. `CSc1ccc(CC2C(=O)Nc3ccccc32)cc1` (stereo not drawn): the “activity change, negative = inhibition” value was inactive: -8.02%. With `O=C(Cc1ccccc1F)N1CCC(c2nc3c(nnn3Cc3ccc(F)cc3)c(=O)[nH]2)CC1`, the “activity change, negative = inhibition” value was inactive: -22.7%.

`O=C(CS(=O)(=O)c1cccc2nsnc12)Nc1cc(F)ccc1F`: the “activity change, negative = inhibition” value is inactive: 2.11%. On to `N#C/C(=C\c1ccccc1)C(=O)Nc1sc2c(c1C(N)=O)CCC2`, for which the “activity change, negative = inhibition” value was inactive: -4.63%. Turning to `CCc1ccccc1NC(=O)C1COc2ccccc2C1` (stereo not drawn), the “activity change, negative = inhibition” value is inactive: -8.54%. With `Cn1cnc(S(=O)(=O)N2CCC(C(=O)N3CCN(c4ccc(Cl)cc4)CC3)CC2)c1`, the “activity change, negative = inhibition” value was inactive: -25.2%.

For `N[C@H](C(=O)O)[C@@H](O)c1ccc(O)c(O)c1`, the “activity change, negative = inhibition” value is inactive: 5.27%. Regarding `COc1cccc(C2C(C(=O)Nc3ccccc3)=C(C)Nc3nnnn32)c1OC` (stereo not drawn), the “activity change, negative = inhibition” value is inactive: -8.83%.

Take `Cc1cc(C)cc(OCC(=O)Nc2ccc(Cl)c(-c3nc4ncccc4o3)c2)c1`: the “activity change, negative = inhibition” value was inactive: -20.8%. On to `N#Cc1ccc(OC(=O)c2cc(-c3ccc4c(c3)OCCO4)on2)cc1`, for which the “activity change, negative = inhibition” value was inactive: 45.1%. Next, `CC(=O)Nc1ccc(-n2c(CCC(=O)O)ccc2-c2ccc(C)cc2)cc1`: inactive: -24.8%. With `CCOC(=O)c1oc2ccc(S(=O)(=O)n3nc(-c4cc(OC)cc(OC)c4)cc3N)cc2c1C`, the “activity change, negative = inhibition” value was inactive: -25.6%. With `Cc1ccc(NC(=O)CSc2nc3c(oc4ccccc43)c(=O)n2Cc2ccco2)cc1`, the “activity change, negative = inhibition” value was inactive: -11.2%. On to `CCCn1c(=O)c2sccc2n2c(CCCC(=O)N3CCN(c4cccc(C)c4C)CC3)nnc12`, for which the “activity change, negative = inhibition” value was inactive: -7.88%. Next, `CC(=O)N(Cc1cccnc1)c1nc2c(C)cccc2s1`: inactive: -19.1%; `Cn1cc(-c2cc3n(n2)CCC(=O)N3CCCC(=O)Nc2ccc(F)cc2F)c2ccccc21`: inactive: 0%. For `COc1ccc(CCn2c(=O)c3cccnc3n(CC(=O)Nc3cccc(C)c3)c2=O)cc1OC`, the “activity change, negative = inhibition” value was inactive: 10.4%. Regarding `CCOC(=O)C1CCN(C(=O)Cn2nc(C)n3c(cc4cc(C)ccc43)c2=O)CC1`, the “activity change, negative = inhibition” value was inactive: -9.48%.

As for `Cc1cc2nc(-c3ccc(Br)cc3)cc(C(F)(F)F)n2n1`, the “activity change, negative = inhibition” value is inactive: -15.6%. With `CCc1ccc(-c2cn3c(n2)sc2cc(C(=O)NCC(C)c4ccccc4)ccc23)cc1` (stereo not drawn) the figure was inactive: -7.4%; with `Cc1nnc2c(N3CCN(c4ccccc4)CC3)nc3ccc(C(=O)c4ccccc4)cc3n12`, inactive: -7.51%; with `O=C(C1CC1)N1CCc2cc(Br)cc(S(=O)(=O)N3CCN(c4ccccc4)CC3)c21`, inactive: -6.59%.

For `OCc1cccnc1`, the “activity change, negative = inhibition” value was inactive: -4.22%. Next, `Cn1c(=O)c2sccc2n2c(CCC(=O)N3CCN(c4cccc(Cl)c4)CC3)nnc12`: inactive: -10.6%; `Cc1c(CNCCc2ccc(S(N)(=O)=O)cc2)c(C(=O)O)c(C)n1Cc1ccc(Cl)cc1`: inactive: 7.65%; `CCCCC(=O)Nc1nnc(S(=O)(=O)N(CC)c2cc(C)cc(C)c2)s1`: inactive: -10.4%. `CCCCOC(=O)c1ccc(Nc2nc3ccccc3c3nnc(C)n23)cc1`: the “activity change, negative = inhibition” value is inactive: 6.12%.

Turning to `CN(C(=O)CSc1nc2ccccc2n1CC(=O)N(C)c1ccc(F)cc1)c1ccccc1`, the “activity change, negative = inhibition” value was inactive: -6.76%. For `CCc1ccccc1NC(=O)Cn1nnc(C(=O)NCc2cccs2)c1N`, the “activity change, negative = inhibition” value was inactive: -21.9%. For the compound `O=C(CSc1nccn1Cc1ccc(F)cc1)Nc1ccc2c(c1)OCO2`, the “activity change, negative = inhibition” value is inactive: -31.4%. With `COc1ccc(CNCCSc2nnnn2-c2ccccc2)c(OC)c1` the figure was inactive: -14.8%. Consider `Cc1nc(-c2cccc(F)c2)sc1CCNC(=O)c1ccc(F)c(F)c1`, for which the “activity change, negative = inhibition” value is inactive: -29.2%. Regarding `COc1ccc(Cn2ccnc2SCC(=O)NCc2ccccc2)cc1`, the “activity change, negative = inhibition” value was inactive: -34.2%.

Take `CCC1CCCCN1C(=O)c1nn(-c2ccc(C)cc2)c(=O)c2c1c1ccccc1n2C` (stereo not drawn): the “activity change, negative = inhibition” value is inactive: 2.05%. `CCOc1ccc(CCNC(=O)c2cnc3sc(N4CCOCC4)nn3c2=O)cc1`: the “activity change, negative = inhibition” value was inactive: 2.36%. With `COc1ccccc1-c1ccnc2[nH]n(-c3ccccc3)c(=O)c12` the figure was inactive: -11.2%; with `Cc1cccc(N2CCN(c3nc4ccccc4c(=O)n3-c3ccc(Cl)cc3)CC2)c1C`, inactive: -26.8%. For the compound `CCc1cccc(C)c1NC(=O)Cn1c(=O)cc(C(F)(F)F)c2c(C)nn(C)c21`, the “activity change, negative = inhibition” value was inactive: 1.73%. With `Cc1ccc(N2CCN(C(=O)c3ccc4c(Cl)c5c(nc4c3)CCCC5)CC2)c(C)c1`, the “activity change, negative = inhibition” value was inactive: -6.14%.

As for `O=C(Nc1ccc(F)cc1F)c1c2c(nc3ccccc13)C(=O)N(C1CCCCC1)C2`, the “activity change, negative = inhibition” value was inactive: -16.7%. With `O=C(NCc1cccs1)C1CCN(C(=O)N2CCOc3ccccc32)CC1`, the “activity change, negative = inhibition” value is inactive: -12.8%.

For `O=C(Nc1c(-c2ccccc2)nc2ccccn12)c1ccc(Br)cc1`, the “activity change, negative = inhibition” value is inactive: -10.7%.

Consider `O=C(CSc1nc2c([nH]c3ccccc32)c(=O)n1-c1ccccc1)c1ccccc1`, for which the “activity change, negative = inhibition” value was inactive: 0.29%. `CCOC(=O)c1cc(OC(=O)c2ccc(Cl)cc2)n(-c2ccccc2)n1`: the “activity change, negative = inhibition” value was inactive: 2.85%.

Regarding `COc1ccc(C2C(=O)N(C3CCCCC3)CC(=O)N2Cc2ccccc2Cl)cc1OC` (stereo not drawn), the “activity change, negative = inhibition” value is inactive: 3.62%. `COc1ccc(-c2nn(CC(=O)Nc3ccccc3F)c3c2cnc2ccc(F)cc23)cc1`: the “activity change, negative = inhibition” value is inactive: 39.7%.

Regarding `Cc1ccc(-c2nc(S(=O)(=O)c3ccc(C)cc3)c(N3CCN(c4ccccc4)CC3)o2)cc1`, the “activity change, negative = inhibition” value was inactive: -10.7%. Consider `Cc1ccc(C)c(N2CCN(CCCNC(=O)Cn3ncc4c([nH]c5ccccc54)c3=O)CC2)c1`, for which the “activity change, negative = inhibition” value was inactive: -1.79%. `CCN(CC)CCNC(=O)c1cc(Cl)c(N)cc1OC`: the “activity change, negative = inhibition” value was inactive: 6.68%.
